Results as given in the supplement of paper PMC8285479.
Counter-ions that a name gives are not always drawn. ± gives the standard deviation of the averaged measurements. In all, about 1,900 compounds were measured (“normalised cell viability (NPI; 0 = phenylarsine oxide control, 1 = DMSO control)”: median about 1, lowest 2% from about 0.039 on). The list shows a part of the results.

System: NCI-H1944
Assay: normalised cell viability (NPI; 0 = phenylarsine oxide control, 1 = DMSO control) (fraction of DMSO control); NCI-H1944 is a non-small cell lung cancer line; higher = more viable cells (less compound toxicity)
Conditions: 6 days
[1] = glucocorticoid arm: hydrocortisone 2.75 uM co-treatment, compound 1 µM
[2] = glucocorticoid arm: hydrocortisone 2.75 uM co-treatment, compound 5 µM
[3] = glucocorticoid arm: hydrocortisone 2.75 uM pre-treated 2 days and continued, compound 1 µM
[4] = glucocorticoid arm: hydrocortisone 2.75 uM pre-treated 2 days and continued, compound 5 µM
[5] = glucocorticoid arm: vehicle, compound 1 µM
[6] = glucocorticoid arm: vehicle, compound 5 µM
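Note: CTB read-out in 384-well plates, mean of triplicate wells, normalised per plate against 1 µM phenylarsine oxide and 0.1% DMSO, compounds added 24 h after seeding.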

Compound | normalised cell viability [1] | normalised cell viability [2] | normalised cell viability [3] | normalised cell viability [4] | normalised cell viability [5] | normalised cell viability [6]
O=C(O)C1CCCN(CCC=C(c2ccccc2)c2ccccc2)C1 (centres undefined) | 0.9933 ± 0.0021 | 1 ± 0.025 | 1.01 ± 0.026 | 0.999 ± 0.0017 | 1.002 ± 0.007 | 0.9933 ± 0.0099
COc1ccc(-c2ccc3ncc4c(c3c2)n(-c2ccc(N3CCNCC3)c(C(F)(F)F)c2)c(=O)n4C)cn1 | 0.00163 ± 0.00092 | 0.000434 ± 0.00018 | 0.25 ± 0.021 | 0.0016 ± 0.00014 | 0.000974 ± 0.00058 | 0.000275 ± 0.00038
COc1cc2nc(N(C)CCCNC(=O)C3CCCO3)nc(N)c2cc1OC (centres undefined) [Alfuzosin HCl] | 1.02 ± 0.025 | 1.03 ± 0.021 | 1.04 ± 0.01 | 1.043 ± 0.0058 | 1 | 0.9847 ± 0.004
Clc1ccc(Cn2c(CN3CCCC3)nc3ccccc32)cc1 [Clemizole hydrochloride] | 1.003 ± 0.0061 | 1.06 ± 0.01 | 1.01 ± 0.012 | 1.05 ± 0.014 | 1.003 ± 0.0058 | 1.023 ± 0.0058
Oc1ccc2ccccc2c1SSc1c(O)ccc2ccccc12 | 1.03 ± 0.01 | 1.08 ± 0.021 | 1.017 ± 0.0058 | 1.01 ± 0.028 | 1.013 ± 0.0058 | 1.04 ± 0.01
CCCCc1nc2cc(/C=C/C(=O)NO)ccc2n1CCN(CC)CC [Pracinostat (SB939)] | 0.9753 ± 0.004 | 0.00959 ± 0.0058 | 1 ± 0.0095 | 0.0658 ± 0.0071 | 0.686 ± 0.077 | 0.000852 ± 0.0004
O=C(O)/C=C/c1ccc(O)c(O)c1 [Caffeic Acid] | 0.993 ± 0.029 | 0.988 ± 0.009 | 0.993 ± 0.0062 | 0.988 ± 0.0085 | 1.017 ± 0.0058 | 1.01 ± 0.011
N=C(N)Nc1ccc(C(=O)Oc2ccc3cc(C(=N)N)ccc3c2)cc1 [Nafamostat mesylate] | 0.9887 ± 0.009 | 1.01 ± 0.011 | 1.01 ± 0.011 | 1.03 ± 0.017 | 1.002 ± 0.0072 | 1.013 ± 0.0058
Cc1[nH]c2ccccc2c1C1=C(NCCc2ccc(F)cc2)C(=O)N(C)C1=O | 0.964 ± 0.019 | 0.962 ± 0.053 | 0.988 ± 0.011 | 0.973 ± 0.021 | 0.977 ± 0.007 | 0.9803 ± 0.0047
OCC1OC(n2cnc3c(NC4CCCCC4)ncnc32)C(O)C1O (centres undefined) [N6-Cyclohexyladenosine] | 1.01 ± 0.012 | 1.02 ± 0.01 | 1.01 ± 0.019 | 1.01 ± 0.025 | 0.9773 ± 0.0015 | 0.981 ± 0.0036
N[C@@H](Cc1c[nH]c2ccc(O)cc12)C(=O)O [5-Hydroxy-L-tryptophan] | 1.01 ± 0.012 | 1.013 ± 0.0058 | 1.017 ± 0.0058 | 1.013 ± 0.0058 | 1.01 | 1.01 ± 0.011
CC(C)n1nc(-c2ccc3oc(N)nc3c2)c2c(N)ncnc21 | 0.33 ± 0.017 | 0.201 ± 0.0068 | 0.454 ± 0.01 | 0.295 ± 0.013 | 0.169 ± 0.0025 | 0.0832 ± 0.0029
NC(=O)C1=CN(C2OC(COP(=O)(O)OP(=O)(O)OC[C@H]3O[C@@H](n4cnc5c(N)ncnc54)C(OP(=O)(O)O)[C@H]3O)C(O)C2O)C=CC1 (some centres undefined) [NADPH tetrasodium] | 0.999 ± 0.0017 | 0.995 ± 0.018 | 0.9987 ± 0.0015 | 1.02 ± 0.04 | 1.007 ± 0.0058 | 1.02 ± 0.017
CC1=C(/C=C/C(C)=C/C=C/C(C)=C/C(=O)O)C(C)(C)CCC1 [Retinoic acid] | 0.98 ± 0.007 | 0.993 ± 0.013 | 0.998 ± 0.019 | 0.997 ± 0.014 | 0.9697 ± 0.0055 | 0.973 ± 0.0099
CC1=C(/C=C/C(C)=C/C=C/C(C)=C/C(=O)O)C(C)(C)CCC1 [Retinoic acid; Tretinoin; 13-cis-retinoic acid] | 1 ± 0.015 | 1.06 ± 0.011 | 0.9537 ± 0.0093 | 1.02 ± 0.015 | 1.003 ± 0.0064 | 1.01 ± 0.019
O=C(Nc1nc2cccc(-c3ccc(CN4CCS(=O)(=O)CC4)cc3)n2n1)C1CC1 [Filgotinib (GLPG0634)] | 0.95 ± 0.015 | 0.874 ± 0.019 | 0.95 ± 0.016 | 0.904 ± 0.035 | 0.993 ± 0.01 | 1 ± 0.012
CC(=O)Oc1ccccc1C(=O)O [Aspirin (Acetylsalicylic acid)] | 0.981 ± 0.012 | 1.003 ± 0.0061 | 0.983 ± 0.012 | 1.01 ± 0.011 | 0.997 ± 0.001 | 1.003 ± 0.0061
CC(=O)Oc1ccccc1C(=O)O [Acetylsalicylic acid] | 1.001 ± 0.0081 | 0.996 ± 0.016 | 0.974 ± 0.033 | 0.9805 ± 0.0035 | 0.991 ± 0.0062 | 0.9943 ± 0.004
CC1=C(/C=C/C(C)=C/C=C/C(C)=C/C=C/C=C(C)/C=C/C=C(C)/C=C/C2=C(C)C(=O)[C@@H](O)CC2(C)C)C(C)(C)C[C@H](O)C1=O [Astaxanthin] | 0.9913 ± 0.0035 | 0.989 ± 0.0079 | 0.991 ± 0.016 | 1.005 ± 0.0071 | 0.993 ± 0.015 | 1.002 ± 0.007
CNS(=O)(=O)CCc1ccc2[nH]cc(C3CCN(C)CC3)c2c1 [Naratriptan] | 1.01 ± 0.012 | 1.02 ± 0.029 | 1.023 ± 0.0058 | 1.027 ± 0.0058 | 1 ± 0.0084 | 0.9963 ± 0.0038
O=C(O)c1ccc(-c2c[nH]c3ncc(-c4ccccc4)cc23)cc1C1CCCC1 | 1.02 ± 0.015 | 1.03 ± 0.015 | 1.013 ± 0.0058 | 1.02 ± 0.015 | 1.005 ± 0.0087 | 1.02 ± 0.016
CN1CCc2cc(Cl)c(O)cc2[C@@H](c2ccccc2)C1 | 0.99 ± 0.0087 | 0.945 ± 0.0095 | 0.9893 ± 0.0078 | 0.952 ± 0.015 | 0.9837 ± 0.0035 | 0.983 ± 0.007
Nc1ccc(N2C(=O)c3ccccc3C2=O)c(Cl)c1 [N-(4-Amino-2-chlorophenyl)phthalimide] | 0.995 ± 0.0056 | 1.013 ± 0.0058 | 0.999 ± 0.022 | 1.01 ± 0.018 | 0.994 ± 0.017 | 1.003 ± 0.0058
CC1=C(C(=O)O)N2C(=O)[C@@H](NC(=O)[C@H](N)C3=CCC=CC3)[C@H]2SC1 [Cephradine] | 1.03 ± 0.01 | 1.01 ± 0.019 | 1.02 ± 0.015 | 1.01 | 1.02 ± 0.01 | 1.03 ± 0.01
